The other results are listed elsewhere or left out. Single values of this set are uncertain. Values with irradiation are relative to irradiated vehicle.
Test system: A549-Dual
Assay: NF-kB reporter (SEAP) activity, viability-corrected, relative to vehicle (fold change vs vehicle); higher = more activation of STING-IRF / NF-kB immune response reporter
Details: 10 µM; irradiation: 8 Gy/4 fr
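Note: viability correction based on the alamar blue assay, with concentrations leaving 10% survival or less dropped.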

Q: `CC1=C(C(=O)OC(C)C)C(c2cccc([N+](=O)[O-])c2)C(C(=O)OC2CN(C(c3ccccc3)c3ccccc3)C2)=C(N)N1` (configuration not stated) [Azelnidipine] was tested. Which NF-kB reporter did it give?
A: 0.376

Q: Which NF-kB reporter does the source give for `O=C(OC1CN2CCC1CC2)N1CCc2ccccc2C1c1ccccc1` (configuration not stated) [Solifenacin] here?
A: 0.86

Q: How did the NF-kB reporter turn out when `CCOc1nc2cccc(C(=O)O)c2n1Cc1ccc(-c2ccccc2-c2nn[nH]n2)cc1` [Candesartan] was run?
A: 0.704

Q: Which NF-kB reporter does the source give for `Clc1ccc(CCC(Cn2ccnc2)Sc2c(Cl)cccc2Cl)cc1` (configuration not stated) [Butoconazole] here?
A: 0.425

Q: Which NF-kB reporter does the source give for `CC1COc2c(C3(N)CC3)c(F)cc3c(=O)c(C(=O)O)cn1c23.CS(=O)(=O)O` (configuration not stated) [Pazufloxacin mesylate] here?
A: 0.764

Q: How did the NF-kB reporter turn out when `CC(COc1ccccc1)N(CCCl)Cc1ccccc1.Cl` (configuration not stated) [Phenoxybenzamine HCl] was run?
A: 0.729

Q: Which NF-kB reporter does the source give for `COc1cc(NC(C)CCCN)c2ncccc2c1.O=P(O)(O)O.O=P(O)(O)O` (configuration not stated) [Primaquine Diphosphate] here?
A: 1.09

Q: How did the NF-kB reporter turn out when `CNCC(O)C(O)C(O)C(O)CO` (configuration not stated) [Meglumine] was run?
A: 0.764

Q: How did the NF-kB reporter turn out when `COc1ccccc1OCC(O)COC(N)=O` (configuration not stated) [Methocarbamol] was run?
A: 1.13

Q: How did the NF-kB reporter turn out when `CC(C)N=c1cc2n(-c3ccc(Cl)cc3)c3ccccc3nc-2cc1Nc1ccc(Cl)cc1` [Clofazimine] was run?
A: 0.887

Q: For `C[N+]1(C)C2CC(OC(=O)C(O)(c3cccs3)c3cccs3)CC1C1OC12.O.[Br-]` (configuration not stated) [Tiotropium Bromide hydrate], which NF-kB reporter is on record?
A: 0.792

Q: For `OC1COC(O)C(O)C1O` (stereo not drawn) [L(+)-Arabinose], which NF-kB reporter is on record?
A: 0.893
